Laboratory results reported in article PMC4336329 (PLoS ONE, 2015).
Among all 310,000 compounds or so, about 2,200 (0.71%) showed an effect of 50% or more. Effects have a minus sign here. The list shows a part of the results. Where a SMILES comes first, the peptide text is derived from it.

Biological target: human ether-à-go-go-related gene (hERG) potassium channel (human, UniProt Q12809)
Test: primary screen, population patch clamp on CHO cells stably expressing hERG

Sequence of human ether-à-go-go-related gene (hERG) potassium channel (Q12809 whole entry, looked up): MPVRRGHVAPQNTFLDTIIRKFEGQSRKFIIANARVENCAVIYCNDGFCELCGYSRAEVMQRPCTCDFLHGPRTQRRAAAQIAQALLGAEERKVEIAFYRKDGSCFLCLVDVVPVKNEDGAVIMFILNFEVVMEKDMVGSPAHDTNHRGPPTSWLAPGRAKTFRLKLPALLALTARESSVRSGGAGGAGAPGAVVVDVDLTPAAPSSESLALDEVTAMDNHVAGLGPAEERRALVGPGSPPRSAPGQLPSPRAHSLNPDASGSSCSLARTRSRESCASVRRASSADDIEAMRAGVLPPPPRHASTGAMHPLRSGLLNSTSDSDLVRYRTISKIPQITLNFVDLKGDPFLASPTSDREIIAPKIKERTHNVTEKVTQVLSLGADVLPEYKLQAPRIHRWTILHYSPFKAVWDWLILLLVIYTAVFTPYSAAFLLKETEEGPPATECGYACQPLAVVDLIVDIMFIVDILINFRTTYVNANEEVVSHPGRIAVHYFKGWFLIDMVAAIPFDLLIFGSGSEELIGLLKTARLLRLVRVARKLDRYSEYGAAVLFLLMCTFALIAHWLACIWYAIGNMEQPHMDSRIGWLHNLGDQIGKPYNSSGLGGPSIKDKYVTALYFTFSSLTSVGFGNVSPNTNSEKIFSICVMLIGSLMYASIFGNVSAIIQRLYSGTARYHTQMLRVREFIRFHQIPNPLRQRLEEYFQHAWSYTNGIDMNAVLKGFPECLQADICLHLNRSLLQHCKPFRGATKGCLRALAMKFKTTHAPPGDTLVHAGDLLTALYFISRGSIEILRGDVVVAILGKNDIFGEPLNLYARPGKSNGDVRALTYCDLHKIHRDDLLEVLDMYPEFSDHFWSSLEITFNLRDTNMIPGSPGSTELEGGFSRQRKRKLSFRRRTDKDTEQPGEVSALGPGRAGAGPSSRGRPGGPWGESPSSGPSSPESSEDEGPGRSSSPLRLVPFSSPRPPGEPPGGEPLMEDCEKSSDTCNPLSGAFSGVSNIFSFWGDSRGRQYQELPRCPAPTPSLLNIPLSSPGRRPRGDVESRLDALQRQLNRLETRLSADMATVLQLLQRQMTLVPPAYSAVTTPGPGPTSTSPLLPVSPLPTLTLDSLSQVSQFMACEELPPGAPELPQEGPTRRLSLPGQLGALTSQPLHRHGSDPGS

Going from `COC(=O)C(CCSC)NC(=O)CNS(=O)(=O)c1ccc(Br)cc1` (stereo not shown) to `CC(=O)Nc1ccc(S(=O)(=O)NCC(=O)NNC(=O)c2csc(N3CCOCC3)n2)cc1`, the “hERG current change (%, negative = inhibition) at 1uM” value rises from -4.14% to -0.0046%.

Going from `CCCc1cc(=O)c2c(O)ccc(OC)c2o1` to `COc1cc(/C=C2/C(=O)ON=C2c2ccccc2)ccc1O`, the “hERG current change (%, negative = inhibition) at 1uM” value falls from 10% to 7.89%.

First: Fc1cccc2sc(Nc3nc4cc5c(cc4s3)OCO5)nc12
Second: COCCCn1c(=N)c(C(=O)NCc2ccc3c(c2)OCO3)cc2c(=O)n3ccccc3nc21
The “hERG current change (%, negative = inhibition) at 1uM” value of the first is higher: 23% for the first, -87.4% for the second.

First: NC(=O)C1CCN(C(=O)COc2ccc3ccc(=O)oc3c2)CC1
Second: COc1ccc(NS(=O)(=O)c2ccc(OCC(=O)N3CCOCC3)cc2)cc1Cl
The “hERG current change (%, negative = inhibition) at 1uM” value of the first is higher: 11.9% for the first, 3.9% for the second.

Compared with `Cc1ccc(-c2noc(CCC(=O)NCCN3CCOCC3)n2)cc1`, `O=C(NCCN1CCOCC1)c1cc(-c2cccc(O)c2)on1` is higher in “hERG current change (%, negative = inhibition) at 1uM” value: 3.09% for the first, 7.87% for the second.

First: COC(=O)c1sccc1NC(=O)c1c(C)cc(=O)oc1C
Second: COC(=O)CNC(=O)c1sc2ncn(CC(=O)Nc3ccc(C)c(Cl)c3)c(=O)c2c1C
The “hERG current change (%, negative = inhibition) at 1uM” value of the first is lower: -1.68% for the first, 13.1% for the second.

Compared with `FC(F)(F)c1ccc(Cl)c(NC2=NCCCCC2)c1`, `Cc1ccccc1OCCNc1ccc(C(F)(F)F)cc1[N+](=O)[O-]` is lower in “hERG current change (%, negative = inhibition) at 1uM” value: 16.7% for the first, 11.6% for the second.

Going from `COc1ccc(CCNC(=O)CSCc2ccc(Br)cc2)cc1OC` to `COc1ccc(CCNC(=O)c2ccc(SC)cc2OC)cc1`, the “hERG current change (%, negative = inhibition) at 1uM” value falls from 12.6% to 3.79%.

First: CCOc1ccc(NC(=O)c2ccc(F)c(S(=O)(=O)N3CCN(c4ccccn4)CC3)c2)cc1
Second: COc1ccc(N2CCN(CC(=O)Nc3ccc(-n4cnnn4)cc3)CC2)cc1
The “hERG current change (%, negative = inhibition) at 1uM” value of the first is lower: 11.2% for the first, 12.7% for the second.

Going from `COC(=O)C1=CN(C(C)c2ccccc2)C=C(C(=O)OC)C1c1cc(OC)c(OC)c(OC)c1` (stereo not shown) to `COc1ccc(Cl)cc1NC(=O)C(OC)c1ccccc1` (stereo not shown), the “hERG current change (%, negative = inhibition) at 1uM” value rises from 5.47% to 7.59%.

First: O=C(Nc1cccnc1)c1ccco1
Second: Cc1nn(C(=O)c2ccco2)c(C)c1Br
The “hERG current change (%, negative = inhibition) at 1uM” value of the first is higher: 12.5% for the first, 12% for the second.

Compared with `CCOC(=O)c1c(NC(=O)CC2SC(N)=NC2=O)sc2c1CCCC2` (stereo not shown), `CCOC(=O)c1[nH]c2ccc(F)cc2c1NC(=O)CCN1CCOCC1` is higher in “hERG current change (%, negative = inhibition) at 1uM” value: -5.26% for the first, 14.9% for the second.

Going from `CC(Sc1ccsc1[N+](=O)[O-])C(=O)N1CCN(c2ccccn2)CC1` (stereo not shown) to `Cc1ccc([N+](=O)[O-])c(OCCN2CCNCC2)c1.O=C(O)C(=O)O`, the “hERG current change (%, negative = inhibition) at 1uM” value falls from 9.12% to 7.74%.

Compared with `C=CCN(c1ccccc1)S(=O)(=O)c1cccc(C(=O)NNC(=O)c2ccccc2O)c1`, `CC(=O)c1cccc(NC(=O)c2cccc3ccccc23)c1` is higher in “hERG current change (%, negative = inhibition) at 1uM” value: 0.358% for the first, 16.4% for the second.

Compared with `COc1ccc(NS(=O)(=O)N2CCOCC2)cc1`, `COc1cccc(NC(=O)Cn2c(SCC(=O)N3CCOCC3)nc3ccccc32)c1` is lower in “hERG current change (%, negative = inhibition) at 1uM” value: 10.8% for the first, 8.73% for the second.

Going from `NNC(=O)CC12CC3CC(C1)CC(n1ncnn1)(C3)C2` to `CC(C)NC(C)C(=O)C12CC3CC(CC(C3)C1)C2.Cl` (stereo not shown), the “hERG current change (%, negative = inhibition) at 1uM” value falls from 9.41% to 9%.

Going from `CCN(Cc1nc(-c2ccc(OC)c(OC)c2)no1)C(=O)c1ccc2c(c1)OCO2` to `CN(C)C(=O)Cn1c(SCC(=O)NCc2ccc3c(c2)OCO3)nc2ccccc21`, the “hERG current change (%, negative = inhibition) at 1uM” value falls from 15.3% to 11%.

Going from `O=C(NNC(=O)c1cc2ccccc2cc1O)c1cccs1` to `O=C(NC(=S)Nc1nc(-c2ccc(Cl)cc2)cs1)c1cccs1`, the “hERG current change (%, negative = inhibition) at 1uM” value rises from 11.9% to 16.4%.

First: O=S(=O)(Nc1cc(S(=O)(=O)N2CCOCC2)ccc1NCC1CCCO1)c1ccc(F)cc1 (stereo not shown)
Second: CCN(CC)S(=O)(=O)c1ccc(S(=O)(=O)N2CCCC(C(=O)NC3CC3)C2)cc1 (stereo not shown)
The “hERG current change (%, negative = inhibition) at 1uM” value of the first is lower: 6.07% for the first, 11% for the second.

Going from `O=c1c2ccccc2nc2n1C(CSCc1ccc(Cl)cc1Cl)CS2` (stereo not shown) to `Cc1ccc2nc(SCc3nc4c(cnn4-c4ccccc4)c(=O)[nH]3)[nH]c2c1`, the “hERG current change (%, negative = inhibition) at 1uM” value rises from -3.12% to 17.3%.

First: O=S(=O)(c1cccs1)N1CN(Cc2ccc(Cl)cc2)c2nc3ccccc3nc21
Second: Cc1ccc(CNC(=O)CCS(=O)(=O)c2cccc3nsnc23)cc1
The “hERG current change (%, negative = inhibition) at 1uM” value of the first is lower: 9.87% for the first, 11.7% for the second.

Going from `CC1Cc2ccccc2N1C(=O)Cn1c(=O)cc(O)c2ccccc21` (stereo not shown) to `CC(NC(=O)Cn1nc(C(=O)O)c2ccccc2c1=O)c1ccccc1` (stereo not shown), the “hERG current change (%, negative = inhibition) at 1uM” value falls from 15.8% to 4.85%.

Compared with `CCc1cccc(CC)c1NC(=O)COC(=O)c1cccc(-c2ccc(OC(C)=O)cc2)c1`, `N#CCCN(C(=O)COC(=O)CNC(=O)c1ccc(-c2ccccc2)cc1)c1ccc(F)cc1` is higher in “hERG current change (%, negative = inhibition) at 1uM” value: 6.01% for the first, 6.76% for the second.

Compared with `COC(=O)C1=C(c2ccc(Cl)c(C(F)(F)F)c2)C[C@@H]2CC[C@H]1N2C(=O)NCCNC(C)=O`, `O=C(NCCNC(=O)c1cnccn1)c1cccc(Cl)c1` is higher in “hERG current change (%, negative = inhibition) at 1uM” value: 11% for the first, 12.4% for the second.

Compared with `COc1ccc(CN(C)C(=O)c2ccc(NS(=O)(=O)c3ccc(C)c([N+](=O)[O-])c3)cc2)c(OC)c1OC`, `CC(=O)c1ccc(NC(=O)Nc2ccc(NS(=O)(=O)c3ccc(C)cc3)cc2)cc1` is higher in “hERG current change (%, negative = inhibition) at 1uM” value: -9.17% for the first, 7.59% for the second.

First: O=C(Cn1cnc2cc([N+](=O)[O-])ccc2c1=O)N(Cc1ccccc1)C1CCS(=O)(=O)C1 (stereo not shown)
Second: O=C(NC1CCCC1)c1cc(-c2ccccc2)nc2ccccc12
The “hERG current change (%, negative = inhibition) at 1uM” value of the first is lower: 6.43% for the first, 20.4% for the second.

First: NS(=O)(=O)c1ccc(NC(=O)CSc2n[nH]c(=O)n2C2CC2)cc1
Second: CCS(=O)(=O)c1ccc2oc(SCC(=O)c3c(N)n(C4CC4)c(=O)[nH]c3=O)nc2c1
The “hERG current change (%, negative = inhibition) at 1uM” value of the first is lower: 12.1% for the first, 21.8% for the second.

Compared with `CC(Sc1nc2ccc(Br)cc2[nH]1)C(=O)O` (stereo not shown), `CCC(Sc1nc2ncccc2[nH]1)C(=O)NCCc1ccccc1` (stereo not shown) is higher in “hERG current change (%, negative = inhibition) at 1uM” value: -11.3% for the first, 9.29% for the second.

First: O=C(NCc1ccco1)C(c1ccccc1F)N(Cc1cccnc1)C(=O)Cn1nnc2ccccc21 (stereo not shown)
Second: Cc1nc2ccc(F)cc2cc1C(=O)NCc1ccco1
The “hERG current change (%, negative = inhibition) at 1uM” value of the first is lower: -13.2% for the first, 6.42% for the second.

First: C/C(=N\NC(=O)c1c(Br)cnn1C)c1ccc(NC(=O)c2ccc(F)cc2)cc1
Second: Cc1ccc(NC(=O)Cn2cc(C=O)c3ccccc32)cc1
The “hERG current change (%, negative = inhibition) at 1uM” value of the first is lower: 5.71% for the first, 8.4% for the second.

Going from `COc1cccc(C2c3c(oc4ccccc4c3=O)C(=O)N2Cc2ccco2)c1` (stereo not shown) to `COc1ccc(NC(=O)C(Cc2ccccc2)n2cccc2)c(OC)c1` (stereo not shown), the “hERG current change (%, negative = inhibition) at 1uM” value falls from 0.412% to -0.667%.

Compared with `CC1CCCCN1S(=O)(=O)c1csc(C(N)=O)c1` (stereo not shown), `CC1CCCCN1C(=O)C12CCC(C)(C(=O)C1)C2(C)C` (stereo not shown) is lower in “hERG current change (%, negative = inhibition) at 1uM” value: 4.46% for the first, 1.12% for the second.

First: CCCCn1c(SCC2CCCCO2)nc2cc(S(N)(=O)=O)ccc21 (stereo not shown)
Second: Cc1ccc2c(c1)C1C=CCC1C(C(=O)NCCCN1CCOCC1)N2 (stereo not shown)
The “hERG current change (%, negative = inhibition) at 1uM” value of the first is lower: -9.18% for the first, 1.82% for the second.

Going from `Cl.c1ccc(-c2nnc(CN3CCCCC3)o2)cc1` to `Cc1ccccc1OCC(=O)Nc1nnc(C2CCCC2)s1`, the “hERG current change (%, negative = inhibition) at 1uM” value falls from 15.7% to 13.6%.

Going from `COc1cc([N+](=O)[O-])c(OC)cc1SCc1n[nH]c(=S)n1-c1ccc(C)cc1` to `COc1cc(/C=C/c2[nH]c(=O)[nH]c(=O)c2[N+](=O)[O-])cc(OC)c1O`, the “hERG current change (%, negative = inhibition) at 1uM” value rises from 11.8% to 14.8%.

Compared with `CN(Cc1nc(Cc2cccc(C(F)(F)F)c2)no1)C1CC(C)(C)NC(C)(C)C1`, `N#Cc1nc(COc2cccc(Cl)c2)oc1NCCN1CCOCC1` is lower in “hERG current change (%, negative = inhibition) at 1uM” value: -10.6% for the first, -22.3% for the second.

Going from `Cc1ccc(NCC(O)Cn2cnc3c2c(=O)n(C)c(=O)n3C)cc1` (stereo not shown) to `Cc1nc(NC(=O)/C=C/c2ccc(F)cc2)sc1C(=O)N(C)C`, the “hERG current change (%, negative = inhibition) at 1uM” value rises from -9.37% to 3.54%.

Going from `COc1ccc(NC(=O)COC(=O)CCCc2c[nH]c3ccccc23)cc1OC` to `COc1cccc(/C=N/NC(=O)C(C)n2nnc3ccccc32)c1` (stereo not shown), the “hERG current change (%, negative = inhibition) at 1uM” value rises from 3.15% to 12.2%.

Going from `CCCCCO` to `C[C@]12C=CC(=O)C=C1CC[C@@H]1[C@@H]2[C@@H](O)C[C@@]2(C)[C@H]1CC[C@]2(O)C(=O)COC(=O)CCC(=O)NCCc1ccc(O)cc1`, the “hERG current change (%, negative = inhibition) at 1uM” value falls from 12.6% to 5.79%.

Compared with `Cc1ccccc1NC(=O)CS(=O)(=O)c1cn(CC(=O)N2CCOCC2)c2ccccc12`, `O=C(NC(=S)Nc1ccccc1N1CCOCC1)c1sc2ccccc2c1Cl` is lower in “hERG current change (%, negative = inhibition) at 1uM” value: 6.26% for the first, 2.57% for the second.

Going from `O=C(NCC1CCCO1)C(c1cccs1)N(C(=O)Cn1nnc(-c2cccs2)n1)C1CCCC1` (stereo not shown) to `Cc1cc(/C(N)=N/OC(=O)Nc2ccccc2)no1`, the “hERG current change (%, negative = inhibition) at 1uM” value rises from -4.19% to 0.305%.

Going from `O=C1NC(=O)/C(=C\c2ccc(N3CCOCC3)o2)N1` to `CCOC(=O)N1CCN(C(=O)C2CC(=O)N(c3ccc(OC)cc3)C2c2ccc(OC)cc2)CC1` (stereo not shown), the “hERG current change (%, negative = inhibition) at 1uM” value falls from 7.43% to -3.04%.

With `CC(=O)NC(Cc1ccccc1)C(=O)NC(Cc1ccccc1)C(=O)O` (stereo not drawn) (Ac-Phe-Phe-OH; configuration not given here) the “hERG current change (%, negative = inhibition) at 1uM” value was 14.4%.
